Screen size: about 310,000 compounds; about 2,200 (0.71%) showed an effect of 50% or more. Effects have a minus sign here. Some of the results follow.
What follows are compounds tested against human ether-à-go-go-related gene (hERG) potassium channel (human, UniProt Q12809) (assay: primary screen, population patch clamp on CHO cells stably expressing hERG).
Chain of human ether-à-go-go-related gene (hERG) potassium channel (Q12809 whole entry, looked up): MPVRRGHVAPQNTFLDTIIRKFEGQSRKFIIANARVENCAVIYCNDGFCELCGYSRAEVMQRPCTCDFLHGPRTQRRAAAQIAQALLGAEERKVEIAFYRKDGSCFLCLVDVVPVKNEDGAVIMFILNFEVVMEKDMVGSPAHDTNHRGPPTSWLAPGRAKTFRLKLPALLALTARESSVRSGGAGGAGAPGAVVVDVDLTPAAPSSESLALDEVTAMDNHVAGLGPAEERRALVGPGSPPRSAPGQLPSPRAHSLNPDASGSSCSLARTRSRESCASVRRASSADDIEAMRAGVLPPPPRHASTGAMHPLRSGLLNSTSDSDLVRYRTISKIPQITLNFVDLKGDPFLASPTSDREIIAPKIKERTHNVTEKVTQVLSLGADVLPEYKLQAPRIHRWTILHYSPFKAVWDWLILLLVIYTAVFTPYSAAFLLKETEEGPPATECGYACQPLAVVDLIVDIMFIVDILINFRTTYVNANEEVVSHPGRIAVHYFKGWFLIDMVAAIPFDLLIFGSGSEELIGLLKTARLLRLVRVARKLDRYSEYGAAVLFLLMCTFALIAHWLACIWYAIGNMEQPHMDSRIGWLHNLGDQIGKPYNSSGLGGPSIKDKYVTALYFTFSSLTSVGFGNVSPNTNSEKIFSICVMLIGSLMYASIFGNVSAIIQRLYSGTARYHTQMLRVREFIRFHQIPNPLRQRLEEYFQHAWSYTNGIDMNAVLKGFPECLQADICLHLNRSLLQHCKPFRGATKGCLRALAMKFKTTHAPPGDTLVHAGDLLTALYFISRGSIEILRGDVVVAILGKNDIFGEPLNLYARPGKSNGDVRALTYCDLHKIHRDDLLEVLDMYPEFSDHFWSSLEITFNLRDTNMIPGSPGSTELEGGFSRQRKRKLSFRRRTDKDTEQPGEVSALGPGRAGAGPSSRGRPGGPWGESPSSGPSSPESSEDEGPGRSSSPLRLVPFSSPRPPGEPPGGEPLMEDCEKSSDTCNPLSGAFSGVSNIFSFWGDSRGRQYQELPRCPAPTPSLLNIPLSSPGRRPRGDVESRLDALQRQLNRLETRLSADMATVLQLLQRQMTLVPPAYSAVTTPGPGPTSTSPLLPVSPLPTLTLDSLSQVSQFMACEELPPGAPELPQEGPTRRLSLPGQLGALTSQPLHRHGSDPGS

Structure (SMILES) | hERG current change (%, negative = inhibition) at 1uM
CC(=O)C1=C(O)C(=O)N(Cc2ccccc2)C1c1ccc(F)cc1 (stereo not drawn) | 14%
CS(=O)(=O)N1N=C(c2ccco2)CC1c1cccc([N+](=O)[O-])c1 (stereo not drawn) | 6.47%
CCN1C(=O)c2ccc(C(=O)Nc3ncc(C)s3)cc2C1=O | 8.87%
Cc1ccc([N+](=O)[O-])cc1NC(=O)c1ccccc1 | 0.0028%
COc1cc2[nH]c(C(=O)N3CCN(c4ccc(F)cc4)CC3)cc2c(OC)c1OC | 15.4%
COc1cccc(CNC(=O)c2ccccc2NC(=O)C2=C(C)OCCS2)c1OC | 8.72%
O=C(c1ccc([N+](=O)[O-])s1)N1CCCc2ccccc21 | 11.1%
CCCc1nnc(NC(=O)C(C)N2C(=O)C3C4C=CC(C4)C3C2=O)s1 (stereo not drawn) | 11%
O=C(CCCN1C(=O)C(c2ccccc2)Oc2cccnc21)Nc1cccc(F)c1 (stereo not drawn) | 9.02%
O=C(N/N=C/c1cccnc1)c1ccc(S(=O)(=O)N2CCCCCC2)cc1 | 7.54%
O=C(CSc1nnc(Cn2nnc3ccccc32)o1)N(Cc1ccc(F)cc1)c1ccccc1 | -1.71%
Cc1ccccc1CN(c1ccc(C(=O)Nc2cccnc2)cc1)S(C)(=O)=O | 3.11%
COc1ccc(Nc2oc(COc3ccccc3OC)nc2C#N)cc1 | 8%
COc1ccc(F)cc1C(=O)C1CCCN(C(=O)c2ccccc2N(C)C)C1 (stereo not drawn) | 2.58%
CN(C)CCCn1c(SCC(=O)Nc2nccs2)nnc1-c1ccncc1 | 15.9%
Cl.c1ccc(OCCN2C3=NCCN3c3ccccc32)cc1 | -51.5%
COc1ccccc1CNC(=O)CCc1c(C)nc2cc(-c3ccccc3OC)nn2c1C | 2.88%
Cc1cc(C(=O)N/N=C/c2cccc(Cl)c2Cl)no1 | 3.36%
COc1ccc(OC)c(S(=O)(=O)N(C)CC(=O)Nc2cc(Cl)ccc2OC)c1 | -4.33%
CCc1ccc2[nH]c(=O)c(Cc3ccccc3)c(O)c2c1 | 3.87%
OCCNc1nc(C2CC2)nc2c1nnn2Cc1ccccc1Cl | 10.4%
COC(=O)c1ccc(NC(=O)c2cccc(N3C(=O)C4C5C=CC(C6CC56)C4C3=O)c2)cc1 (stereo not drawn) | 8.79%

Structure (SMILES) | hERG current change (%, negative = inhibition) at 1uM
CC(=O)Oc1ccc2oc(-c3ccccc3)c(C(N)=O)c2c1 | -4.49%
O=C(C1CCCN(S(=O)(=O)c2cccnc2)C1)N1CCn2c1nc1ccccc12 (stereo not drawn) | -3.85%
Cc1onc(-c2ccccc2)c1C(=O)NC(=S)NNC(=O)c1ccco1 | 12.8%
Cc1sc2ncn(Cc3ccccc3F)c(=O)c2c1C | 1.65%
Cc1onc(-c2ccccc2)c1C(=O)N/N=C/c1ccco1 | 10.6%
CCCCS(=O)(=O)/C=C\C=C/S(=O)(=O)CCCC | 6.71%
Cc1ccc(NC(=O)Nc2cccnc2)cc1 | 7.24%
C=Cn1ccnc1P(=S)(c1ccc2c(c1)c1ccccc1n2CC)c1nccn1C=C | 9%
Cc1ccc(Oc2ccc(NC(=O)C3=CC=CN4CCS(=O)(=O)N=C34)cc2)cc1 | 0.359%
COc1ccc(NS(=O)(=O)c2cccs2)cn1 | 4.27%
CCN(CC)C(=O)C1CCCN(c2ncnc3c2cnn3-c2ccc(Cl)cc2)C1 (stereo not drawn) | -1.93%
COc1ccc(C)cc1NC(=O)CN1CCN(c2ccc(F)cc2)CC1 | -8.46%
CS(=O)(=O)c1ccc([C@@H](O)[C@@H](CF)NC(=O)C(Cl)Cl)cc1 | -2.82%
COC(=O)c1ccc(CSc2nc3sc(C)c(C)c3c(=O)[nH]2)cc1 | 2.36%
C/C(=N\NC(=O)c1cc(-c2cccnc2)nc2ccccc12)c1ccccc1O | -7.84%
COc1ccccc1OCc1nnc(SCC(=O)Nc2ccc(C)cc2)n1C | 3.43%
COCCN(C(=O)CSc1nc2ccccc2c(=O)n1CC(C)C)c1c(N)n(Cc2ccccc2)c(=O)[nH]c1=O | 11.8%
CCOc1ccccc1C(=O)Nc1c[nH]c(=O)[nH]c1=O | 14%
CNc1nc(C23CC4CC(CC(C4)C2)C3)cs1 | 21.7%
Cc1ccc(/C=N/NC(=O)Cn2ccc(C(F)(F)F)n2)o1 | 6.89%
COc1cc2c(cc1OC)CN(C(=S)Nc1ccccc1Cl)CC2 | 6.57%
O=C(OCC(=O)N1CCN(C(=O)c2ccco2)CC1)c1ccccc1C(=O)c1ccccc1 | 0.0205%

Structure (SMILES) | hERG current change (%, negative = inhibition) at 1uM
CCc1cc(=O)oc2cc(C)cc(OC(C)C(=O)O)c12 (stereo not drawn) | -1.9%
CCC(C)[C@H](NC(=O)NCCC1=CCCCC1)C(=O)OC (stereo partly drawn) | 7.96%
Cc1sc2ncnc(-n3cnc4ccccc43)c2c1C | 6.66%
O=S(=O)(Nc1ccc(S(=O)(=O)Nc2ccccc2)cc1)c1ccccc1 | -1.25%
COC(=O)c1cccc(NC(=S)NCc2ccc(F)cc2)c1 | 10.7%
O=C(COC(=O)/C=C/c1ccc2c(c1)OCO2)NC1CCS(=O)(=O)C1 (stereo not drawn) | 6.45%
COc1cccc(NC(=O)CN(C)C(=O)Cc2c(C)nc3ccccc3c2C)c1 | -17%
O=C(COC(=O)c1cc([N+](=O)[O-])ccc1N1CCOCC1)Nc1ccccc1OC(F)F | 10.1%
COCCSc1nnc(NC(=O)CS(=O)(=O)c2ccc(C)cc2)s1 | 14.4%
Cc1ccc(OCC(=O)N2CCc3ccccc3C2)c(C)c1 | 15.4%
O=C(CCN1CCCCC1)Nc1ccc(Br)cc1 | -6.16%
O=C(CCN1C(=O)c2ccccc2S1(=O)=O)Nc1ccccc1O | 3.78%
Cc1ccc2oc(-c3cccc(NC(=O)Cc4cccs4)c3)nc2c1 | 11.6%
O=C(c1ccco1)c1cn[nH]c1-c1ccc(Cl)cc1O | 3.82%
COc1ccc(-n2c3c(cc(C#N)c2=O)C(=O)CCC3)cc1 | 8.17%
CC1=C(CC(=O)O)c2cc(F)ccc2/C1=C/c1ccc(S(C)=O)cc1 (stereo not drawn) | 13.7%
COc1ccc(N(C(=O)Cc2cccs2)C(C(=O)NC2CCCC2)c2ccncc2)cc1OC (stereo not drawn) | 13.5%
C=C(C)C(=O)Oc1ccc(N2C(=O)[C@@H]3C4C=CC(C4)[C@@H]3C2=O)cc1 | 15.7%
O=C(NC1CCN(C(=S)Nc2ccc(Cl)cc2)CC1)c1ccco1 | -13.6%
CN1C(=O)C(CC(=O)Nc2ccccc2)S/C1=N/c1nccs1 (stereo not drawn) | 1.94%
O=C(CSCc1c(F)cccc1Cl)NCc1cccnc1 | -4.2%
CN(C)C1C(=O)C(C(N)=O)=C(O)C2(O)C(=O)C3=C(O)c4c(O)cccc4C(C)(O)C3C(O)C12 (stereo not drawn) | 8.05%

Structure (SMILES) | hERG current change (%, negative = inhibition) at 1uM
Cc1ccc(-n2nc3c(c2NC(=O)c2cc4ccccc4o2)CS(=O)(=O)C3)cc1 | 12.5%
CCOC(=O)C1CN(S(=O)(=O)c2cc(OC)ccc2OC)C1 | 16.2%
Cn1c(N)c(C(=O)CSc2nc3ccccc3c(=O)n2CCCN2CCOCC2)c(=O)n(C)c1=O | 10.7%
O=Cc1c(NCCc2cccc(F)c2)c2ccccc2[nH]c1=O | 8.81%
CCOC(=O)C1CCN(C(=O)COc2ccc(N(C)S(=O)(=O)c3cccs3)cc2)CC1 | -8.97%
O=C1CNC(=O)/C(=C/c2ccco2)N1 | 19.2%
O=C(COC(=O)c1cc(-c2cccs2)nc2ccccc12)NC1CCS(=O)(=O)C1 (stereo not drawn) | 5.26%
Oc1ccc(/C=N/NC(=S)NCc2ccco2)cc1 | 5.21%
C=C(C)CSc1nc(N)c2c(C)c(C)sc2n1 | 10.3%
COc1ccc2cc3cc(C(=O)Nc4ccccc4N4CCN(C)CC4)oc3nc2c1 | 15.8%
O=C(O)C(=O)O.O=C(c1cccs1)N1CCN(Cc2ccncc2)CC1 | 2.14%
Cc1cc(=O)oc(C)c1C(=O)N1CCCc2ccccc21 | 7.12%
COc1cccc(/C(O)=C2/C(=O)C(=O)N(CCCN3CCOCC3)C2c2ccncc2)c1 (stereo not drawn) | 17.3%
Cc1ccc2c(c1)N(C(=O)CCC(=O)N1CCN(c3ccccn3)CC1)CCO2 | -12.3%
CCOC(=O)c1ccc(NS(=O)(=O)c2ccc(Cl)nc2)cc1 | 8.99%
Cc1cc(C)cc(N(CC(=O)NC2CCCC2)C(=O)CCC(=O)Nc2nc(C)cs2)c1 | 5.09%
N#C/C(=C\c1cn[nH]c1-c1ccc(Cl)cc1)C(=O)NC1CC1 | 11.1%
COc1ccccc1CNc1ccc2nnc(CCNC(=O)c3ccccc3)n2n1 | 9.44%
O=C1C=C(Nc2ccc(O)cc2)CC(c2ccco2)C1 (stereo not drawn) | 4.41%
O=C(/C=C/c1ccc(F)cc1)NC(=S)N1C[C@H]2C[C@H](C1)c1cccc(=O)n1C2 | -6.44%
Cc1ccccc1NS(=O)(=O)c1ccc(C(=O)NNC(=O)c2ccccc2O)cc1 | 7.38%
